# Experimental data: PubChem BioAssay (Tox21)
# Several values for one entry are separate records, joined by “and”; a condition that tells them apart may be missing. Equal entries are not always repeated. This list was built around the results that the source calls inconclusive (neither active nor inactive); the mix of calls is not that of the screen. For some of these results: A potency beside an inconclusive call is a rough fit, not a confirmed value. Activity calls are given as the source filed them. Unless noted, calls follow the shape of the dose curve; as a rule, active = well fitted curve in the direction sought with a large enough effect in the repeat runs; inconclusive = weak or mixed curves; inactive = no such curve, though single readings can be large; an effect the other way counts as inactive or inconclusive.
# Assays:
# [1] = molecular target: Estrogen receptor beta (Homo sapiens) (UniProt Q92731); assay: qHTS assay to identify small molecule antagonists of the estrogen receptor beta (ER-beta) signaling pathway (AID 1259378; active = well fitted inhibition curve with a large enough effect in the signal ratio in the repeat runs, not every such curve was filed as active; inconclusive = weak or mixed curves, or effect the other way; inactive = no such curve, though single readings can be large or run the other way; the % refers to the signal ratio; also: potency is read from the fitted curve at half-maximal effect; as to activity, negative = inhibition: % is scaled to controls: 0 for no effect and ±100 for the full control effect); conditions: ER-beta-UAS-bla HEK293T, beta-lactamase FRET ratio, 16 h; activity, negative = inhibition: at 92.4 µM (top of the series) unless noted
# Sequence of UniProt Q92731 (Q92731 whole entry, looked up): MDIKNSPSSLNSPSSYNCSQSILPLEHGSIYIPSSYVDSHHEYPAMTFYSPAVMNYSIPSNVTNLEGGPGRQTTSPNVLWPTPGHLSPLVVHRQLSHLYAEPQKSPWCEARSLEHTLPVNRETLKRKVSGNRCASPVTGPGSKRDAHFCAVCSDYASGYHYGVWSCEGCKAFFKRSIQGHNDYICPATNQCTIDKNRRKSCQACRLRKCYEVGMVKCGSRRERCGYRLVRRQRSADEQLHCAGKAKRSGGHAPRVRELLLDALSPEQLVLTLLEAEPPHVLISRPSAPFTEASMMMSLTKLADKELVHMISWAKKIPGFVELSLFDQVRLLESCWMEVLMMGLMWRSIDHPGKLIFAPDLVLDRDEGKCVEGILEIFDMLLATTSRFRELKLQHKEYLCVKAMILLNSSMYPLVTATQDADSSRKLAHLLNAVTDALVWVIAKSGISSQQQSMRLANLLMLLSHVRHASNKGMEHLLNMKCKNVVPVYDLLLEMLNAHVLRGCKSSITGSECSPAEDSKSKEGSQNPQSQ
# Method in brief: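 ER-beta-UAS-bla HEK293T cells in 2% charcoal-stripped FBS medium treated with compound plus 1nM final 17-beta-estradiol for 16 hr at 37C. Beta-lactamase reporter read by FRET substrate fluorescence after 2 hours at room temperature.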
# [2] = qHTS assay to identify small molecule agonists of the estrogen receptor beta (ER-beta) signaling pathway - cell viability counter screen (AID 1259380); also: potency is read from the fitted curve at half-maximal effect; nearly all actives have a fitted effect of over 30% in size
# Method in brief: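 HEK293T ER-beta-UAS-bla; 2% CS-FBS; 6 hr pre-plate, 16 hr cpd at 37C/5% CO2; LiveBLAzer read first, then CellTiter-Glo 30 min RT, luminescence.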
# [3] = qHTS assay to identify small molecule antagonists of the estrogen receptor beta (ER-beta) signaling pathway - cell viability counter screen (AID 1259382); also: potency is read from the fitted curve at half-maximal effect; nearly all actives have a fitted effect of over 55% in size
# Method in brief: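 Cells: ER-beta-UAS-bla HEK293T, 2,000/well, 2% CS-FBS, 6 hr settle. Cpd + E2 (1nM final), 16 hr, 37C/5% CO2. Bla FRET substrate 2 hr RT, then CellTiter-Glo 30 min RT, luminescence.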
# [4] = molecular target: Thyrotropin receptor (Homo sapiens) (UniProt P16473); assay: qHTS assay to identify small molecule antagonists of the thyroid stimulating hormone receptor (TSHR) signaling pathway (AID 1259385; calls by dose curve; also: potency is read from the fitted curve at half-maximal effect; nearly all actives have a fitted effect of over 20% in size); conditions: TSHR-HEK293 cAMP HTRF, TSH-stimulated antagonist mode; activity change, negative = inhibition: at 92.4 µM (top of the series) unless noted
# Sequence of UniProt P16473 (P16473 whole entry, looked up): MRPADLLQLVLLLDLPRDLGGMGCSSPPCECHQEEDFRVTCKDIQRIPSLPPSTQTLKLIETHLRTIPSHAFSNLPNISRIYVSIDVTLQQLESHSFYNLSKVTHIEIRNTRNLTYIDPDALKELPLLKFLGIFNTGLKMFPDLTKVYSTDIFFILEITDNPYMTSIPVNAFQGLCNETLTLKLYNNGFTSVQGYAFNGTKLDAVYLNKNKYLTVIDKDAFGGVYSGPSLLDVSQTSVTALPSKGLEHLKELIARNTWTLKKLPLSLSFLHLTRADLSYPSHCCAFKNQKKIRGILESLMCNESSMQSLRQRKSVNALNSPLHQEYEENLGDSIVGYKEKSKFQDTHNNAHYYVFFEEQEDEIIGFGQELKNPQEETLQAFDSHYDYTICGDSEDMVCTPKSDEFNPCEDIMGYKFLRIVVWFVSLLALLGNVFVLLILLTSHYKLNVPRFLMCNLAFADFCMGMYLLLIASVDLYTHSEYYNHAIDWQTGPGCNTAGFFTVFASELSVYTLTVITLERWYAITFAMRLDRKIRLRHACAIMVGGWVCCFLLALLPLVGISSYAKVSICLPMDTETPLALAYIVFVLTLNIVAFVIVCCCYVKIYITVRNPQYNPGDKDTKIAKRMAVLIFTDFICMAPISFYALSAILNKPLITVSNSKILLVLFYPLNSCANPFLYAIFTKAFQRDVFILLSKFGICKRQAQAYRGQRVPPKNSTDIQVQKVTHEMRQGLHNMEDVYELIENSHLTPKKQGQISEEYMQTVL
# Method in brief: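 TSHR-HEK293 cells (800/well) plated 18 h, then compounds with Ro20-1724 and TSH at 1.5 ng/mL final, 30 min at room temperature. cAMP quantified by HTRF (cAMP-d2/anti-cAMP-cryptate, 1 h); 15 concentrations in triplicate.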
# [5] = qHTS assay to identify small molecule agonists of the estrogen receptor alpha (ER-alpha) signaling pathway in the presence of an antagonist - cell viability counter screen (AID 1259386);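 also: potency is read from the fitted curve at half-maximal effect; cells exposed to compounds for 22 h at 37 °C before the viability read; nearly all actives have a fitted effect of over 30% in size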
# Method in brief: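 VM7Luc4E2, stripped-serum pre-culture 5 d; 24hr plating; +ICI-182,780 10.0nM final; cpds 15 conc, 22hr, 37C/5% CO2; CellTiter-Fluor added at 21hr, fluorescence 1hr later.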
# [6] = molecular target: Progesterone receptor (Homo sapiens) (UniProt P06401); assay: qHTS assay to identify small molecule agonists of the progesterone receptor (PR) signaling pathway (AID 1346784; calls by dose curve; also: nearly all actives have a fitted effect of over 30% in size; also: potency is read from the fitted curve at half-maximal effect; as to activation: % is scaled to controls: 0 for no effect and ±100 for the full control effect); conditions: PR-UAS-bla HEK293T, beta-lactamase FRET ratio, 16 h; activation: at 92.4 µM (top of the series) unless noted
# Sequence of UniProt P06401 (P06401 whole entry, looked up): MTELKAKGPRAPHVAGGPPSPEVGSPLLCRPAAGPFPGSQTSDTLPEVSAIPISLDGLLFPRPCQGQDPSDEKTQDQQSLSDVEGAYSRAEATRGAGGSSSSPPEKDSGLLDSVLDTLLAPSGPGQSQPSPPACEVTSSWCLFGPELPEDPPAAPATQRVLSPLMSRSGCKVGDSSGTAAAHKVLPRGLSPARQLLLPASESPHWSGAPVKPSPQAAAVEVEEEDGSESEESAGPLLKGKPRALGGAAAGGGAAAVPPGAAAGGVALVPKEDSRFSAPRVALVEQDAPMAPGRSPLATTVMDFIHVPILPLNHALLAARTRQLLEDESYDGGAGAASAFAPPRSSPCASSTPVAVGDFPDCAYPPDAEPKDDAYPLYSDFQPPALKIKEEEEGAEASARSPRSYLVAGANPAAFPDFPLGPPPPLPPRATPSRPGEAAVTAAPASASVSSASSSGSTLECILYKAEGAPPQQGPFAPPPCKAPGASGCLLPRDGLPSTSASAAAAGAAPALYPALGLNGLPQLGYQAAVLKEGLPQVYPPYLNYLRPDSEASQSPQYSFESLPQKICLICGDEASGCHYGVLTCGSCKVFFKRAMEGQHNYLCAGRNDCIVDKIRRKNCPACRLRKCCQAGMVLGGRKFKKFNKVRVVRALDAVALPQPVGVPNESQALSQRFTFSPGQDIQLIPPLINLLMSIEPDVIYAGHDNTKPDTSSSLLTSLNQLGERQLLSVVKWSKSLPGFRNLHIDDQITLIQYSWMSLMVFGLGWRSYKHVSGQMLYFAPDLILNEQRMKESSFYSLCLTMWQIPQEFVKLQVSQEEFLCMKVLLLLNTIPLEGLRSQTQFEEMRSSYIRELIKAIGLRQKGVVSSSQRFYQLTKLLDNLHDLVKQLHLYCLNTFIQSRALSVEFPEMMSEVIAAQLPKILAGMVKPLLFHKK
# Method in brief: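 Reporter assay, GripTite PR-UAS-bla HEK 293T cells: 16 hr exposure to DMSO-dissolved compounds at 37C, 5% CO2, in steroid-depleted (2% charcoal-stripped FBS) medium; beta-lactamase measured by FRET fluorescence.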
# [7] = molecular target: Progesterone receptor (Homo sapiens) (UniProt P06401); assay: qHTS assay to identify small molecule antagonists of the progesterone receptor (PR) signaling pathway (AID 1346795; active = well fitted inhibition curve with a large enough effect in the signal ratio in the repeat runs, not every such curve was filed as active; inconclusive = weak or mixed curves; the % refers to the signal ratio; also: potency is read from the fitted curve at half-maximal effect; as to activity change, negative = inhibition: % is scaled to controls: 0 for no effect and ±100 for the full control effect); conditions: PR-UAS-bla HEK293T, beta-lactamase FRET ratio, 16 h; activity change, negative = inhibition: at 92.4 µM (top of the series) unless noted
# Method in brief: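 Stimulus R5020 at 1 nM final; cells HEK293T PR-UAS-bla; medium with 2% charcoal-stripped FBS; compound exposure 16 hr at 37C, 5% CO2; detection by FRET beta-lactamase substrate, 2 hr, room temperature.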
# [8] = qHTS assay to identify small molecule agonists of the TGF-beta/Smad signaling pathway - cell viability counter screen (AID 1346829); also: potency is read from the fitted curve at half-maximal effect; nearly all actives have a fitted effect of over 45% in size
# Method in brief: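 After overnight seating at 37 C and 5% CO2, reporter cells got compounds for 5 hr and FRET substrate for 2 hr; cell viability then came from CellTiter-Glo luminescence.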
# [9] = qHTS assay to identify small molecule antagonists of the TGF-beta/Smad signaling pathway (AID 1346924; active = well fitted inhibition curve with a large enough effect in the signal ratio in the repeat runs, not every such curve was filed as active; inconclusive = weak or mixed curves; the % refers to the signal ratio; also: potency is read from the fitted curve at half-maximal effect); conditions: SBE-bla HEK293T, TGF-beta/Smad reporter, beta-lactamase ratio; activity, negative = inhibition: at 76.8 µM (top of the series) unless noted
# Method in brief: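 SBE-bla HEK 293T cells were plated overnight, then received compound in DMSO plus TGF-beta1 (added as a 0.25 ng/mL solution) and were incubated 5 h at 37 C. Beta-lactamase reporter activity was read after 2 h at room temperature with LiveBLAzer B/G FRET substrate (ex 405, em 460/530 nm).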
# [10] = qHTS assay to identify small molecule agonists of the androgen receptor (AR) signaling pathway in the presence of an antagonist - cell viability counter screen (AID 1259379); also: potency is read from the fitted curve at half-maximal effect; nearly all actives have a fitted effect of over 25% in size
# Method in brief: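 Cells: MDA-kb2 (MMTV-luc, AR and GR elements), 3,000/well, 5 hr settle. Added: nilutamide 3.0uM final, then compounds (15 conc.). Incubation: 16 hr, 37C, no CO2. Read-out: CellTiter-Fluor, 1 hr, fluorescence.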
# [11] = qHTS assay to identify small molecule agonists of the TGF-beta/Smad signaling pathway (AID 1346859; active = well fitted activation curve with a large enough effect in the signal ratio in the repeat runs, not every such curve was filed as active; inconclusive = weak or mixed curves; the % refers to the signal ratio; also: potency is read from the fitted curve at half-maximal effect); conditions: SBE-bla HEK293T, TGF-beta/Smad beta-lactamase reporter, 5 h; activation: at 76.8 µM (top of the series) unless noted
# Method in brief: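 Screening used HEK 293T SBE-bla cells at 4,000/well. Test agents: 5 hr, 37 C. Detection: FRET substrate, 2 hr RT, then excitation 405 nm with emissions at 460 and 530 nm.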
# [12] = qHTS assay to identify small molecule antagonists of the progesterone receptor (PR) signaling pathway - cell viability counter screen (AID 1346798); also: potency is read from the fitted curve at half-maximal effect; nearly all actives have a fitted effect of over 50% in size
# Method in brief: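 In the same plates used for the beta-lactamase readout, cell viability of compound- and R5020-treated PR-UAS-bla HEK293T cells (16 hr, 37C) was assessed by CellTiter-Glo luminescence.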
# [13] = qHTS assay to identify small molecule antagonists of the TGF-beta/Smad signaling pathway - cell viability counter screen (AID 1346824); also: potency is read from the fitted curve at half-maximal effect; nearly all actives have a fitted effect of over 50% in size
# Method in brief: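 SBE-bla HEK 293T cells, incubated overnight, then compound plus 0.25 ng/mL TGF-beta1 (stock added) for 5 hr at 37 C. Viability was read in the same wells by CellTiter-Glo luminescence after 30 min at room temperature.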
# [14] = qHTS assay to identify small molecule agonists of the progesterone receptor (PR) signaling pathway - cell viability counter screen (AID 1346799; calls by dose curve; also: nearly all actives have a fitted effect of over 45% in size; also: potency is read from the fitted curve at half-maximal effect)
# Method in brief: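 Multiplexed viability read: CellTiter-Glo luminescence, 30 min RT, following LiveBLAzer FRET measurement on PR-UAS-bla HEK293T cells exposed to compounds 16 hr.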
# [15] = molecular target: Thyrotropin-releasing hormone receptor (Homo sapiens) (UniProt P34981); assay: qHTS assay to identify small molecule agonists of the thyrotropin-releasing hormone receptor (TRHR) signaling pathway (AID 1346891; calls by dose curve; also: % is scaled to controls: 0 for no effect and ±100 for the full control effect)
# Sequence of UniProt P34981 (P34981 whole entry, looked up): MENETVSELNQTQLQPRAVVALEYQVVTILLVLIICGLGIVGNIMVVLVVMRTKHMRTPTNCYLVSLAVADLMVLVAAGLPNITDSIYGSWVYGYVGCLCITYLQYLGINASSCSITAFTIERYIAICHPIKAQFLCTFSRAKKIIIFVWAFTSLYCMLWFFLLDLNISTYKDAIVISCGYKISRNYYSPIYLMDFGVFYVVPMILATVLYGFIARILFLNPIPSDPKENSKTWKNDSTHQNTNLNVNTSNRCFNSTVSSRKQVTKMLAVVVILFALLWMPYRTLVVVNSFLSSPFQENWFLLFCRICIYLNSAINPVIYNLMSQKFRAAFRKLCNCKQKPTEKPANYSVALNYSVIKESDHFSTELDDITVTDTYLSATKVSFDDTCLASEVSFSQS
# Method in brief: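 Readout was intracellular calcium fluorescence in TRHR-Hek293 cells. Cells were incubated 18 h, dye-loaded 2 h at 37 °C, and treated with compound in agonist mode.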
# Tags tell the direction and shape of the fitted curve or compound fluorescence and quenching.
smiles,measurement,setting,value
CCCCCCCCCc1ccc(OCCOCCO)cc1,"activity, negative = inhibition",[1],inconclusive: -50.3% [at 42.5 µM]
same,Potency,[2],active: 20.4 µM
same,Potency,[3],"inconclusive: 25.6 µM [cytotoxic, single point]"
same,Potency,[4],active: 25.6 µM
same,Potency,[5],active: 22.8 µM
same,activation,[6],inconclusive: -14.2% [at 42.5 µM]
same,Potency,[7],active: 12.8 µM
same,Potency,[8],"inconclusive: 9.17 µM [cytotoxic, single point]"
same,Potency,[9],inconclusive: 18.3 µM
O=C1c2cccc(O)c2C(=O)c2c(O)cccc21,"activity, negative = inhibition",[1],inconclusive: 2.7%
same,Potency,[10],inconclusive: 30.9 µM [cytotoxic] and inconclusive: 26.6 µM [cytotoxic]
same,Potency,[5],"inconclusive: 34.7 µM [cytotoxic, partial curve] and inconclusive: 33.5 µM [cytotoxic, single point]"
same,Potency,[11],"inconclusive: 31.2 µM [rising, partial curve, poor fit]"
C/C=C/C=C/C(=O)O,Potency,[1],inactive
same,Potency,[2],"inconclusive: 241 nM [cytotoxic, single point] and inconclusive: 15.4 µM [cytotoxic, single point]"
same,Potency,[6],inactive
O=[N+]([O-])c1ccc(O)c2ncccc12,Potency,[1],active: 5.96 µM
same,Potency,[2],active: 0.944 µM
same,Potency,[3],"inconclusive: 11.9 µM [cytotoxic, partial curve]"
same,Potency,[5],active: 11.9 µM
same,Potency,[7],active: 0.531 µM
same,Potency,[12],active: 0.531 µM
same,"activity, negative = inhibition",[9],inconclusive: 1.63% [at 35.3 µM]
CC(=O)O[C@]1(C(C)=O)CC[C@H]2[C@@H]3C=C(Cl)C4=CC(=O)CC[C@]4(C)[C@H]3CC[C@@]21C,"activity, negative = inhibition",[1],inconclusive: -42.2%
same,Potency,[2],"inconclusive: 68.5 µM [cytotoxic, single point]"
same,Potency,[3],"inconclusive: 68.5 µM [cytotoxic, single point]"
same,Potency,[6],"inconclusive: 54.4 µM [fluorescent, single point] and inconclusive: 2.1 nM [full curve]"
same,Potency,[7],inconclusive: 61 µM
same,Potency,[13],"inconclusive: 43.6 µM [cytotoxic, single point]"
same,Potency,[9],"inconclusive: 26.8 µM [rising, single point]"
O=C1NC(=O)c2cccc3cccc1c23,Potency,[1],inactive
same,Potency,[2],"inconclusive: 61.1 µM [cytotoxic, partial curve, poor fit]"
same,activation,[6],inconclusive: 22.7%
same,"activity change, negative = inhibition",[7],inconclusive: 12.1%
CC(=O)N[C@@H](CS)C(=O)O,"activity, negative = inhibition",[1],inconclusive: -13.9%
same,Potency,[2],"inconclusive: 0.137 µM [rising, partial curve, poor fit]"
Nc1ccc(Oc2ccc(Cl)cc2)cc1,Potency,[1],"inconclusive: 13.4 µM [rising, partial curve, poor fit]"
same,Potency,[2],"inconclusive: 10.6 µM [cytotoxic, full curve]"
same,Potency,[6],"inconclusive: 59.8 µM [falling, partial curve, poor fit]"
same,Potency,[7],active: 18.9 µM
same,Potency,[12],"inconclusive: 47.5 µM [rising, partial curve]"
same,Potency,[14],"inconclusive: 42.3 µM [rising, partial curve]"
CCC(C)OC(C)CC (stereo not given),Potency,[1],active: 28.3 µM
same,Potency,[2],"inconclusive: 0.634 µM [cytotoxic, full curve]"
same,Potency,[7],"inconclusive: 28.3 µM [falling, single point]"
same,Potency,[14],"inconclusive: 28.3 µM [rising, single point]"
C=C1CC[C@H](O)C/C1=C\C=C1/CCC[C@]2(C)[C@@H]([C@H](C)CCCC(C)C)CC[C@@H]12,Potency,[1],"inconclusive: 54 µM [rising, single point]"
same,Potency,[3],active: 30.4 µM
same,Potency,[5],"inconclusive: 60.6 µM [cytotoxic, partial curve, poor fit]"
same,Potency,[12],"inconclusive: 68 µM [cytotoxic, single point]"
same,Potency,[14],"inconclusive: 68 µM [cytotoxic, single point]"
same,"activity, negative = inhibition",[9],inconclusive: -11.6%
CC(C)(C)c1ccc(CCC=O)cc1,Potency,[1],inactive
same,Potency,[2],"inconclusive: 68.6 µM [cytotoxic, single point]"
same,Potency,[6],inactive
same,Potency,[14],inactive
CCOC(=O)[C@H](CCc1ccccc1)N[C@H]1CCc2ccccc2N(CC(=O)O)C1=O,Potency,[1],inconclusive: 18.8 µM
same,Potency,[3],"inconclusive: 11.9 µM [cytotoxic, full curve]"
same,Potency,[4],active: 29.8 µM
same,"activity change, negative = inhibition",[7],inconclusive: -40.7% [at 42.5 µM]
same,Potency,[12],active: 21.1 µM
same,Potency,[14],active: 21.1 µM
same,Potency,[11],"inconclusive: 19 µM [fluorescent, partial curve]"
CC(C)(C)CC(=O)OCC(=O)[C@@]1(O)CC[C@H]2[C@@H]3CCC4=CC(=O)C=C[C@]4(C)[C@H]3[C@@H](O)C[C@@]21C,Potency,[1],active: 26.6 µM
same,Potency,[3],"inconclusive: 10.6 µM [cytotoxic, full curve]"
same,Potency,[4],"inconclusive: 26.6 µM [falling, partial curve]"
same,Potency,[7],active: 21.1 µM
same,Potency,[12],"inconclusive: 33.5 µM [cytotoxic, single point]"
same,Potency,[14],"inconclusive: 29.8 µM [cytotoxic, partial curve, poor fit]"
same,Potency,[15],inactive
